Results as given in PubChem BioAssay AID926 (National Center for Advancing Translational Sciences (NCATS), 2007).
The whole screen tested about 73,000 compounds, of which about 350 (0.48%) were called active. Not shown: some 17% with an inconclusive outcome. Some entries of the source have several records that differ or are many. Only these are listed. There may be further records. Values that stand side by side are repeated measurements (runs, samples, wells, individuals or studies).

Assay: qHTS Assay for Agonists of the Thyroid Stimulating Hormone Receptor;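 note: the control signal comes from parental cells without the receptor; % of control where 0% means no effect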
Details: HEK293-CNG-TSHR cells (CNG channel as cAMP sensor), membrane potential dye, cAMP; measured here: parental cells max response
Source text: NIH Chemical Genomics Center [NCGC]
NIH Molecular Libraries Screening Centers Network [MLSCN]
PI Name: Dr. Marvin Gershengorn, NIH
Thyroid Stimulating Hormone Receptor
TSH is an alpha/beta heterodimeric glycoprotein hormone secreted from the anterior pituitary gland which belongs to the glycoprotein hormone family. The actions of TSH are mediated by a seven-transmembrane receptor, which upon TSH binding couples preferentially to the G-alpha (s) protein (Gs), resulting in activation of adenylate cyclase and increase in cyclic adenosine 3', 5' monophosphate (cAMP). The TSH receptor (THSR) is mainly expressed in thyroid follicular cells and regulates their growth and function. Recombinant TSH is used to activate TSHR in patients with thyroid cancer receiving thyroid hormone suppression therapy and to screen for residual tumor after surgery, but it is expensive and must be administered intramuscularly. […]
High Throughput Screening. […] 23 nl/well compound or control was then added to the assay plates, which were incubated for additional 30 min before reading a Envision fluorescence plate reader (Perkin Elmer) in bottom-read mode for fluorescence intensity (emission at 590 nm).
Keywords: Thyroid-stimulating hormone TSH, TSHR, TSHR agonist, quantitative high throughput screening, qHTS, HTS, probe identification, CNG, cAMP, cyclic nucleotide gated ion channel PubChem

Q: For `CNCC[C@H](Oc1ccc(C(F)(F)F)cc1)c1ccccc1`, which activation is on record?
A: The activation was 18.2, 5.58, 5.4, -2.39, 44.6% [separate samples].
